Hit rate of the full screen: of about 310,000 compounds, about 2,200 (0.71%) showed an effect of 50% or more. The effect is printed as a negative number. This is one part of the list.
Each compound was assayed against human ether-à-go-go-related gene (hERG) potassium channel (human, UniProt Q12809) (assay: primary screen, population patch clamp on CHO cells stably expressing hERG).
Sequence of human ether-à-go-go-related gene (hERG) potassium channel (Q12809 whole entry, looked up): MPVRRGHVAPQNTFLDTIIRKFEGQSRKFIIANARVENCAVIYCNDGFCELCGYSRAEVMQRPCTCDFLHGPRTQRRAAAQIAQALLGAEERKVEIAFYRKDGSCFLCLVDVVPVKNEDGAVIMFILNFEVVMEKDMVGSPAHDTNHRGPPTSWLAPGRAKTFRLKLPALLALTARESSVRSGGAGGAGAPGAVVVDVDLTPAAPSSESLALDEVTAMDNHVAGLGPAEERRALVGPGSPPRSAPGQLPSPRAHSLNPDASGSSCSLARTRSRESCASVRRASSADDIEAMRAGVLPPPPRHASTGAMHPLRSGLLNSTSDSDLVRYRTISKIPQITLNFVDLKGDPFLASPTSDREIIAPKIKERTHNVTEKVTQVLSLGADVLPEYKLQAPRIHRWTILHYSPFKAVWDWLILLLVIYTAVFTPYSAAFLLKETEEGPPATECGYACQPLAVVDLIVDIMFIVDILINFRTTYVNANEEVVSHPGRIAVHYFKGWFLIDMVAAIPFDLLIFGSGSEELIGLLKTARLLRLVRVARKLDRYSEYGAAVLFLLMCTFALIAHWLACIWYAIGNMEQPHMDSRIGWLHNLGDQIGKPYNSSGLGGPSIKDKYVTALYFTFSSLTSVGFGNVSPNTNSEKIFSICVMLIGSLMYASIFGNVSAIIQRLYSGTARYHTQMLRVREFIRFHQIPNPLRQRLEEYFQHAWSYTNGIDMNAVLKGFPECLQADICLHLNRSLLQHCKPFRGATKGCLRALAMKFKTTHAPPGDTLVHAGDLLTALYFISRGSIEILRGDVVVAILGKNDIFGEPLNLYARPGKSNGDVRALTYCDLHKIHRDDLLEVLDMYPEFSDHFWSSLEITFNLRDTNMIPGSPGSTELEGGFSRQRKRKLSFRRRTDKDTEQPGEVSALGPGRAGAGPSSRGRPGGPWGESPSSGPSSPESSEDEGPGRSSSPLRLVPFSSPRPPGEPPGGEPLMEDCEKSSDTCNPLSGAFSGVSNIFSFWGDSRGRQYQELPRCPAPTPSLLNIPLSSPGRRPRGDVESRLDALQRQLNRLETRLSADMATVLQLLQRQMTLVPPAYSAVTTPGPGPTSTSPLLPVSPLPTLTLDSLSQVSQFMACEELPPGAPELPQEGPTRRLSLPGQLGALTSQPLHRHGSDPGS

| SMILES | hERG current change (%, negative = inhibition) at 1uM |
| --- | --- |
| CCOC(=O)[C@H]1[C@H]2COc3ccc(C)cc3[C@@H]2N2C(=O)c3cc(OC)c(OC)cc3NC(=O)[C@@]12C | 3.85% |
| O=Cc1cn(CC(=O)Nc2ccc(F)cc2)c2ccccc12 | 11.4% |
| O=C(CSc1ccccc1)N1CCCC(N2CCN(c3ccccc3)CC2)C1 (centres unmarked) | 2.18% |
| CCN(CC)S(=O)(=O)c1ccc2oc(C(=O)NC3CC3)c(C)c2c1 | 5.09% |
| CCCCCn1cnc2sc(CC)cc2c1=O | 2.11% |
| CCOC(=O)N1CCC(NC(=O)c2ccc(CS(=O)(=O)c3c(Cl)cccc3Cl)o2)CC1 | -16.3% |
| Cc1c(CN2CCC(C(=O)Nc3ccc(Oc4ccccc4)nc3)CC2)cnn1C | -1.12% |
| CC(C)CCOP(N)(=O)Oc1ccccc1 (centres unmarked) | 12.8% |
| O=C(CCCc1ccccc1)Nc1ccnn1C1CCN(Cc2ccccc2F)CC1 | -7.43% |
| O=C(Nc1ccccc1)Nc1ccc(Br)cc1F | 14.3% |
| N#Cc1c(/N=C/c2ccco2)oc(-c2ccccc2)c1-c1ccccc1 | 7.39% |
| Cc1cc(C(=O)C(C)OC(=O)c2cnccn2)c(C)n1-c1ccccc1 (centres unmarked) | 0.97% |
| Cc1sc2ncnc(SCC(=O)N3CCCCC3)c2c1C | 6.04% |
| O=C(CSc1nc(-c2ccco2)cc(C(F)(F)F)n1)NCCCN1CCOCC1 | 6.27% |
| COc1ccc(Cl)cc1S(=O)(=O)n1cnc2ccccc21 | 9.86% |
| Cc1cc(S(=O)(=O)Nc2ccc(C(=O)NCC3(N(C)C)CCCCC3)cc2)ccc1F | -7.71% |
| Cl.N=c1ccn(Cc2c(Cl)cccc2Cl)cc1 | 13.8% |
| O=C(Nc1nc(-c2ccccc2)cs1)c1ccco1 | 0.339% |
| CCSc1nnc(NC(=O)c2cc(C)nc3ccccc23)s1 | 1.94% |

| SMILES | hERG current change (%, negative = inhibition) at 1uM |
| --- | --- |
| CC(C(=O)Nc1nnc(C2CC2)s1)N1C(=O)C2CC=CCC2C1=O (centres unmarked) | 4.18% |
| CCN(CC)c1ccc(C(=O)n2cnc3ccccc32)cc1 | 12.2% |
| Cc1ccc(S(=O)(=O)NCCCN2CCOCC2)c(C)c1 | 10.1% |
| CC(=O)c1cnc(-c2ccccn2)s1 | 4.65% |
| COc1cccc(CC(=O)Nc2ccc(S(=O)(=O)N3CCOCC3)cc2)c1 | 19.5% |
| O=C(NC1CCN(S(=O)(=O)c2cccc(Cl)c2)CC1)C1CCCCC1 | 11.6% |
| Cc1ccc2oc(-c3ccc(C)c(NC(=S)NC(=O)c4cccs4)c3)nc2c1 | 9.05% |
| CN(CC(=O)Nc1cccc(F)c1)C(=O)CCCNC(=O)c1ccc(Cl)cc1 | 4.19% |
| CC(=O)Nc1nnc(SCC(=O)NC2CC2)s1 | 16.9% |
| COc1ccc(Cc2nc3c4c(ncn3n2)Oc2ccc3ccccc3c2C4c2ccc(OC)c(OC)c2)cc1 (centres unmarked) | 5.71% |
| CCN1CCN(S(=O)(=O)c2ccc(OC)c3ccccc23)CC1 | 0.905% |
| CCOC(=O)c1c(NC(=O)c2cc(C(C)C)on2)sc(C(C)=O)c1C | 13.5% |
| COc1ccccc1NC(=O)COc1ccc2c(c1)OCO2 | 9.41% |
| O=C1c2ccc(Br)cc2C(=O)N1c1ccc(Cl)cn1 | 10.9% |
| Cn1ncc([N+](=O)[O-])c1C(=O)Nc1ccc2c(c1)OCCO2 | 12.7% |
| CCN(CC)S(=O)(=O)c1cccc(C(=O)N/N=C/c2ccc(N3CCOCC3)cc2)c1 | 17.1% |
| O=C(NCc1ccc(F)cc1)C(=O)NCC1OCCN1S(=O)(=O)c1ccc2c(c1)OCCO2 (centres unmarked) | 6.09% |
| O=C(c1ccccc1)N1CCC(c2nc3c(nnn3Cc3ccco3)c(=O)[nH]2)CC1 | 0.867% |
| COC(=O)C(C)n1cnc2c(nnn2-c2cccc(Cl)c2)c1=O (centres unmarked) | -3.7% |

| SMILES | hERG current change (%, negative = inhibition) at 1uM |
| --- | --- |
| Cc1cc(C)c(NC2=NCCCS2)c(C)c1.Cl | 10.8% |
| Cc1oc2cc3oc(=O)c(CCC(=O)NCc4ccccn4)c(C)c3cc2c1C | 9.09% |
| CCOC(=O)C(NS(=O)(=O)c1ccc(C)cc1)(C(F)(F)F)P(=O)(OCC(C)C)OCC(C)C (centres unmarked) | 8.98% |
| CCCCCC1CC(=O)N(Cc2ccc(Cl)cc2)C(=O)N1 (centres unmarked) | 4.45% |
| COc1ccc(C2CN=NC23CCc2ccccc2C3=O)cc1 (centres unmarked) | 6.62% |
| COc1cccc(CNC(=O)Cn2ccc3cc(S(=O)(=O)N4CCCC4)ccc32)c1OC | 26.1% |
| COCCCNCCOCCOc1ccc(Cl)cc1C(C)(C)C.O=C(O)C(=O)O | -7.81% |
| Cc1c(NC(=O)c2ccc(Br)s2)c(=O)n(-c2ccccc2)n1C | 16.5% |
| COc1ccc(CNCCC(c2ccc(F)cc2)c2ccc(OC)cc2)cc1 (centres unmarked) | -35.6% |
| COc1cccc(/C(C)=N/NC(=O)c2cc(-c3cccnc3)nc3ccccc23)c1 | -0.418% |
| Cc1nc(N2CCOCC2)c(C#N)c2c1COC(C)(C)C2 | 7.52% |
| COc1ccc(CNC(=O)C(OC(=O)c2cccs2)C(C)C)cc1 (centres unmarked) | 8.66% |
| Cc1n[nH]c(C)c1S(=O)(=O)NCCc1ccc(Cl)cc1 | 11% |
| CCCCNC(=O)N1CCCN(c2ccc(C#N)cn2)CC1 | -11.6% |
| CCC(NC(=O)CCc1c(C)c2cc3c(C)c(C)oc3cc2oc1=O)C(=O)N[C@@H](Cc1ccccc1)C(=O)O (some centres unmarked) | 14.7% |
| CN(Cc1ncc[nH]1)Cc1cn(-c2ccccc2)nc1-c1ccc2c(c1)OCO2 | 5.75% |
| Cc1ccc(CCN=c2c([N+](=O)[O-])nn(-c3ccccc3)n2O)cc1 | 9.39% |
| O=C1C=C(c2ccc3ccccc3c2)C[C@@H](c2ccc(F)cc2)C1 | -0.483% |
